In article PMC3718817 (2013) one finds binding data, which are given here for 7 molecules.

Protein sequences, listed by entry. Tags and fused reporters are not part of them.
UniProt P38873: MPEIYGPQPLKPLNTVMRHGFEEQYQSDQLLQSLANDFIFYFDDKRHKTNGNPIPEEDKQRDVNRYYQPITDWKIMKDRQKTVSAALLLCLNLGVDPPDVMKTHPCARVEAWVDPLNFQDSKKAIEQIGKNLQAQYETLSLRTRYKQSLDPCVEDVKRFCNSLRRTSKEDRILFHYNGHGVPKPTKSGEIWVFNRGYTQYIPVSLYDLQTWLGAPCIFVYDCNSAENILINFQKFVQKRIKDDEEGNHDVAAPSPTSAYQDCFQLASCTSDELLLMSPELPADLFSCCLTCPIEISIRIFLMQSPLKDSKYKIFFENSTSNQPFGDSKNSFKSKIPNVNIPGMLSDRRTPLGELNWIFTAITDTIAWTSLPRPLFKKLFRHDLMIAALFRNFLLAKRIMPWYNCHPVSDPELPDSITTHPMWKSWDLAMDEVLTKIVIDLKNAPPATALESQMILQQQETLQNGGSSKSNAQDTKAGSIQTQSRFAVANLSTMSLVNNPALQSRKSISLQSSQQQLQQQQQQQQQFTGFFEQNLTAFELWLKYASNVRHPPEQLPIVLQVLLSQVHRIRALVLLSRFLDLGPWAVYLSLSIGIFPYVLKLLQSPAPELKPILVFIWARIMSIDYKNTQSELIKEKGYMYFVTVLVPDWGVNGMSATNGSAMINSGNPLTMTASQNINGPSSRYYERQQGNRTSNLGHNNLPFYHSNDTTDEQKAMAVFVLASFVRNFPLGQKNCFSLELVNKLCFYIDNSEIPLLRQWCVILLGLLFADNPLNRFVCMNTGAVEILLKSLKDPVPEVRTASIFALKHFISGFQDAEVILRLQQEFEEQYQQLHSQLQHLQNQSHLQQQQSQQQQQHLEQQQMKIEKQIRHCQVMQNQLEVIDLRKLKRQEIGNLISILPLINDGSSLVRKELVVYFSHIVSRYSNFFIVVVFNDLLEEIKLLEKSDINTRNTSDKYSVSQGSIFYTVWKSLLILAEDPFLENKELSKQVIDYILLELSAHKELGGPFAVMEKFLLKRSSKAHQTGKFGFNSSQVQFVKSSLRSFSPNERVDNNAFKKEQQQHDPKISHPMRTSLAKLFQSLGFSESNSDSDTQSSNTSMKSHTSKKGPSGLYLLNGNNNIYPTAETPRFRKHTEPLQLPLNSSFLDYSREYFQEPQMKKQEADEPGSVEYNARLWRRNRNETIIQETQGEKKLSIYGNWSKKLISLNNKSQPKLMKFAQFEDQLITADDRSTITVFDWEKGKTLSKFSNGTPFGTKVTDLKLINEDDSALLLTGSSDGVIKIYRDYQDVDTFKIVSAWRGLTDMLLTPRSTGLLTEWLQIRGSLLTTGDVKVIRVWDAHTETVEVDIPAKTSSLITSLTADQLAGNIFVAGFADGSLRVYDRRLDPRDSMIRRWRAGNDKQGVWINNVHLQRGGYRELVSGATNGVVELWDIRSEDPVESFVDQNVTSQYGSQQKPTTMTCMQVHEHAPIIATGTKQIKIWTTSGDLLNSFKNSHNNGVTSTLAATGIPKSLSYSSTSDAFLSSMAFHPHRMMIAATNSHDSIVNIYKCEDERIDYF
UniProt Q12464: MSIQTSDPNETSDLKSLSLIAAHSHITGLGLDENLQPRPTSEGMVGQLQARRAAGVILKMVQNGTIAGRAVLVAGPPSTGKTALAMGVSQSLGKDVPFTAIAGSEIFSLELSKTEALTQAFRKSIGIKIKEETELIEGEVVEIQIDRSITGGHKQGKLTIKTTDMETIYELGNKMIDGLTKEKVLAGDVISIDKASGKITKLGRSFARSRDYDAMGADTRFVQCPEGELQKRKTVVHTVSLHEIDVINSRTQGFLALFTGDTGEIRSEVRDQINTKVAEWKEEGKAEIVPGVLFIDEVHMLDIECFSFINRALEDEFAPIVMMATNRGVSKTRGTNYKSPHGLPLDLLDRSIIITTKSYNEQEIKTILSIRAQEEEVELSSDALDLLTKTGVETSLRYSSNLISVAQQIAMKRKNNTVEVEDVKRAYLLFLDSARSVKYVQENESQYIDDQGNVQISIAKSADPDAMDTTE
UniProt Q03940: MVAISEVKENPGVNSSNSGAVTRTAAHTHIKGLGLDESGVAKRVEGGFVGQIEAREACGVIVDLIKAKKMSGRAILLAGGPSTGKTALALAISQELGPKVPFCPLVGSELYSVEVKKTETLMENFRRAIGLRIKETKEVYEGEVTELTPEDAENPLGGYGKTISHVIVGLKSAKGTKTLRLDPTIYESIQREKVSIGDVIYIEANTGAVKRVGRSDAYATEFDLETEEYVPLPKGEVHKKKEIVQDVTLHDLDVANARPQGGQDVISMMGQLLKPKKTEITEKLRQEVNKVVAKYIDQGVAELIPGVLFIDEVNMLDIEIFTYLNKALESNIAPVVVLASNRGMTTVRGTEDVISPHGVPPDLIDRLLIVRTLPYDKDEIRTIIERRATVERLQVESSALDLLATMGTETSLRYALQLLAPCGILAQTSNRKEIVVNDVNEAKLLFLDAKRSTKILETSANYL
UniProt P32598: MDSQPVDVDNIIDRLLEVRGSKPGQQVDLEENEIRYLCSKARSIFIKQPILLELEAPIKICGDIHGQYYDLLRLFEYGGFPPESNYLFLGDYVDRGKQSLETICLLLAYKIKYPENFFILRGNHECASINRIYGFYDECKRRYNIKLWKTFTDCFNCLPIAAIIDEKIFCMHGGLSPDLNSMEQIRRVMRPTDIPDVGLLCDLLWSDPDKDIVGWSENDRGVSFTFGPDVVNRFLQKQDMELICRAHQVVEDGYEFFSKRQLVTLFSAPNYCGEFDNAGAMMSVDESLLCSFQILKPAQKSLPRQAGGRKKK
UniProt P00722: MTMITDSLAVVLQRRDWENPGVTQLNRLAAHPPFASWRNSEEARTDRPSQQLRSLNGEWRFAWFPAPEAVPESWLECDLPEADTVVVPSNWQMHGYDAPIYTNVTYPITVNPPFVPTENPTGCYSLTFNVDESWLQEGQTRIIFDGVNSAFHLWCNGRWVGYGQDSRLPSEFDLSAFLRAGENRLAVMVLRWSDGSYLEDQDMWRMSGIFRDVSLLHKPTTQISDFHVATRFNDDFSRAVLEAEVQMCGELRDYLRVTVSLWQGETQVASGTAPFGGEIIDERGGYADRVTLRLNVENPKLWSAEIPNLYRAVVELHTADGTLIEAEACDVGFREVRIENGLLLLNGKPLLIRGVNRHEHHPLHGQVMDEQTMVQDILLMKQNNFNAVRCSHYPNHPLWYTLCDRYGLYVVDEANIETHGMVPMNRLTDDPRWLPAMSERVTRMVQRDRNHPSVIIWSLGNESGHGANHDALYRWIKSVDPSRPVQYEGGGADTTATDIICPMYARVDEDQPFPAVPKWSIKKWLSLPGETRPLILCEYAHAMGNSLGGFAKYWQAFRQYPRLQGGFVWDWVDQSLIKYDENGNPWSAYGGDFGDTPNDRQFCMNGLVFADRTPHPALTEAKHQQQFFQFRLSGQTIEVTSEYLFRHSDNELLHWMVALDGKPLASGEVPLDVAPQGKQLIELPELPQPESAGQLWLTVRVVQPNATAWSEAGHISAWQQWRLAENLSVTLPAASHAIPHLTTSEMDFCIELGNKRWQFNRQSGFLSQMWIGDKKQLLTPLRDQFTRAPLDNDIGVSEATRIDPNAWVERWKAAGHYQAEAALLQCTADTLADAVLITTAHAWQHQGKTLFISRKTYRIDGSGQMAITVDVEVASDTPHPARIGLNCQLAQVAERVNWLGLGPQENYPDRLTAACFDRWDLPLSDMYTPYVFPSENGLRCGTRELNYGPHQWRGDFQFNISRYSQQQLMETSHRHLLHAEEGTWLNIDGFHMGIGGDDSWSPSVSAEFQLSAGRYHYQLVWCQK

Where a chain is given by its changes, count along the chain named. Results are given in words; binding and its absence hold for the method and conditions named. For some of these results: Binding seen in cells or lysates may run through a third protein. Some results given as binding are weak or reduced against the parent protein; the word gives no strength. For some of these results: Where a sequence is shown, tags or fusion partners need not be part of it.

Test [1] concerns the target T1, GST-Snf4 (S. cerevisiae) (UniProt P12904).
T1 sequence: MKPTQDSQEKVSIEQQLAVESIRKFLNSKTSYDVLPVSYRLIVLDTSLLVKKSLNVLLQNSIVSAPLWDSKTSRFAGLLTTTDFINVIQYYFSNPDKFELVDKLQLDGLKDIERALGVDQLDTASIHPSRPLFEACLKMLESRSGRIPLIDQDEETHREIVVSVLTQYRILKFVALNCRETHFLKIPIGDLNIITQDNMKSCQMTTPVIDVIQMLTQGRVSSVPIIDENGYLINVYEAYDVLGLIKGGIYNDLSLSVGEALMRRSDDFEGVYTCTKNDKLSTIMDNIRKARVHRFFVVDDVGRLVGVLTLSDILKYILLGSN
Kind of test: pull-down; GST fusion proteins affinity purified from crude extracts of JC1624/pRS314 expressing β-galactosidase (GAL1p-lacZ); detected by anti-β-galactosidase immunoblot.

For test [2], the target named is T2, GST-Bub3 (S. cerevisiae) (UniProt P26449).
T2 sequence: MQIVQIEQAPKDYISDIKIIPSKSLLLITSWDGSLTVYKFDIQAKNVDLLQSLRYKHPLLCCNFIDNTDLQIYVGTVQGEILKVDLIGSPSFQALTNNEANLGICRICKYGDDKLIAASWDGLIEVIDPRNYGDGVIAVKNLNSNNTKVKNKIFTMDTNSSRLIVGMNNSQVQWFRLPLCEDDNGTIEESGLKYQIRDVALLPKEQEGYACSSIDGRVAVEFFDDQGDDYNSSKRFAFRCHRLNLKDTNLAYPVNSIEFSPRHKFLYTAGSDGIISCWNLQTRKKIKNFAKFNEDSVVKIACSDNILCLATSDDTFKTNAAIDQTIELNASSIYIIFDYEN
Described as above.

The target of test [3] is T3, GST-Ahc1 (S. cerevisiae) (UniProt Q12433).
T3 sequence: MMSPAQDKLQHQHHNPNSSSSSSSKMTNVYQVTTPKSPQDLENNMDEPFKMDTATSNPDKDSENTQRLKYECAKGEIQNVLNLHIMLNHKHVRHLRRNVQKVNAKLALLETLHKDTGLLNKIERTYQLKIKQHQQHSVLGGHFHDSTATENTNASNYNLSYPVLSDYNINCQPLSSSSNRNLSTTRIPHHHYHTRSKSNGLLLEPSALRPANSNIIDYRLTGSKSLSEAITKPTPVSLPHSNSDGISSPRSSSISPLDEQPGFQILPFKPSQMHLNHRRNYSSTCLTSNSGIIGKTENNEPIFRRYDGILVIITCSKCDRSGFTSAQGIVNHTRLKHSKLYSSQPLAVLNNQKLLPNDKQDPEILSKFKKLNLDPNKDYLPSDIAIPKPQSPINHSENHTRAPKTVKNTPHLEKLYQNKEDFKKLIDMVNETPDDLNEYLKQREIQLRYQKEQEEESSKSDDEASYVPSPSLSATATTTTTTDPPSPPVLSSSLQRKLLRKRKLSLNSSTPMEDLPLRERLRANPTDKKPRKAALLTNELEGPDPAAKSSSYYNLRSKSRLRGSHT
Described as above.

The target of test [4] is T4, GST-Ygr130C (S. cerevisiae) (UniProt P53278).
T4 sequence: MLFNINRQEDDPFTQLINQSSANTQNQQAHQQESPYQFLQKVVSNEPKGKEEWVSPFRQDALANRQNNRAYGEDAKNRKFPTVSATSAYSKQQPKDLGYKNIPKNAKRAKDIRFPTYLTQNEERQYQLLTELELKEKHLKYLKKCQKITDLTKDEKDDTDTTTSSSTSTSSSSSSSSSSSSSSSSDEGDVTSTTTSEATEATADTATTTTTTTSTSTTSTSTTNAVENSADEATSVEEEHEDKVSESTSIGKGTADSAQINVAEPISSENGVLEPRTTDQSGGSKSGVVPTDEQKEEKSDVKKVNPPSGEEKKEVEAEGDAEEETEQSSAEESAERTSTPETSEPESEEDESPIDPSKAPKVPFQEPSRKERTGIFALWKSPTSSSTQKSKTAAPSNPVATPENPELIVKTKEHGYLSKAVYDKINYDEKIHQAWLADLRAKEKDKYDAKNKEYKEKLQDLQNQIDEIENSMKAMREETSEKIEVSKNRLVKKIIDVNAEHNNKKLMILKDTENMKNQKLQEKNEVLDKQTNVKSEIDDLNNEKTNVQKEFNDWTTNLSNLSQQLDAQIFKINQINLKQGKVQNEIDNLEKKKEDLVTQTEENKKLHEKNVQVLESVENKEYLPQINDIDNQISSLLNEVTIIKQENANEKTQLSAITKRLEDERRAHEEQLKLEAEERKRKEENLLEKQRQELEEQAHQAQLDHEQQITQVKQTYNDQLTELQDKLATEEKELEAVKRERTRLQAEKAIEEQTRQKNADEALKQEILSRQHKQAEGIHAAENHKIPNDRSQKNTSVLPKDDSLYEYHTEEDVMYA
Described as above.

The target of test [5] is GST-Kog1 (S. cerevisiae) (UniProt P38873). The description is as above.
Test [6] has as its target T5, GST-Nop6 (S. cerevisiae) (UniProt Q07623).
T5 sequence: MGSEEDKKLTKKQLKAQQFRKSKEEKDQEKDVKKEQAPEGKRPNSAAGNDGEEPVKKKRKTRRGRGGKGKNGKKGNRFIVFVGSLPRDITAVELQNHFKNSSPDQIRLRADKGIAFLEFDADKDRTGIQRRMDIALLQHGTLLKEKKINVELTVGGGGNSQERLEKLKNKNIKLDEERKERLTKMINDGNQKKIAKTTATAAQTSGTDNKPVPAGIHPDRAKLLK
The description is as above.

Test [7] concerns the target GST-Rvb2 (S. cerevisiae) (UniProt Q12464). The test is described as above.
Test [8] concerns the target GST-Rvb1 (S. cerevisiae) (UniProt Q03940). The test is described as above.
For test [9], the target named is Gal4(1-147)-Glc7 (S. cerevisiae) (UniProt P32598). Nature of the test: two-hybrid; PJ69-4A with pAS1-GLC7 (Gal4 DNA-binding domain fusion) and Gal4AD-Sds22 fusions; β-galactosidase activity of three independent transformants.
Test [10] concerns the target T1, GST-Snf4 (S. cerevisiae). Nature of the test: pull-down; GST fusion proteins affinity purified from crude extracts of yeast co-expressing HA3-Sds22 or HA3-Sds22-RM45 (galactose and CuSO4 induction); binding and washes with 250 mM NaCl; copurified protein detected by anti-HA immunoblot.
Test [11] addresses T2, GST-Bub3 (S. cerevisiae). The description is as above.
In test [12] the target is T3, GST-Ahc1 (S. cerevisiae). Described as above.
For test [13], the target named is T4, GST-Ygr130C (S. cerevisiae). Described as above.
In test [14] the target is GST-Kog1 (S. cerevisiae) (UniProt P38873). The test is described as above.
In test [15] the target is T5, GST-Nop6 (S. cerevisiae). The test is described as above.
The target in test [16] is GST-Rvb2 (S. cerevisiae) (UniProt Q12464). The description is as above.
Test [17] has as its target GST-Rvb1 (S. cerevisiae) (UniProt Q03940). The test is described as above.

Consider “β-galactosidase (from UniProt P00722 1-1024) (enzyme)”, for which the binding entry (with GST-Snf4 (S. cerevisiae) [1]; in the test with GST-Bub3 (S. cerevisiae) [2]; with GST-Ahc1 (S. cerevisiae) [3]; in test [4]; in the test with GST-Kog1 (S. cerevisiae) [5]; with GST-Nop6 (S. cerevisiae) [6]) was “no binding” in each case. The binding result with GST-Rvb2 (S. cerevisiae) [7] and with GST-Rvb1 (S. cerevisiae) [8] was “no binding” throughout.

B1: Gal4AD-Sds22-S56am (domain or fragment, UniProt P36047 1-55)
chain: MDKNSVNKDSEEKDERHKIEVVDDTNPDFITADSELTQDLPDDVEVIDLVHLKIK
Turning to B1, the binding result in [9] is given as “no binding”.

B2: Gal4AD-Sds22 Δ81–171 (protein, UniProt P36047)
chain: MDKNSVNKDSEEKDERHKIEVVDDTNPDFITADSELTQDLPDDVEVIDLVHLKIKSLEDLNLYRFKNLKQLCLRQNLIESIEPDSFEGLSNLEEIWLGKNSIPRLINLHPLKNLKILSIQSNKLKKIENLEELTNLEELYLSHNFITKIEGLEKNLKLTTLDVTSNKITSLENLNHLSNLTDIWASFNKIDQSFESLGENLSALSRLETIYLEGNPIQLENKTSYRRKLTMNLPPSLQKIDATYIRG
Regarding B2, in test [9], the binding result is on record as “binds”.

B3: HA3-Sds22 (protein, UniProt P36047 1-338)
chain: MDKNSVNKDSEEKDERHKIEVVDDTNPDFITADSELTQDLPDDVEVIDLVHLKIKSLEDLNLYRFKNLKQLCLRQNLIESISEVEVLPHDKIVDLDFYDNKIKHISSNVNKLTKLTSLDLSFNKIKHIKNLENLTDLENLYFVQNSISKIENLSTLKSLKNLELGGNKVHSIEPDSFEGLSNLEEIWLGKNSIPRLINLHPLKNLKILSIQSNKLKKIENLEELTNLEELYLSHNFITKIEGLEKNLKLTTLDVTSNKITSLENLNHLSNLTDIWASFNKIDQSFESLGENLSALSRLETIYLEGNPIQLENKTSYRRKLTMNLPPSLQKIDATYIRG
Regarding B3, the binding result is listed as “binds” in the test with GST-Snf4 (S. cerevisiae) [10]; “binds” in the test with GST-Bub3 (S. cerevisiae) [11]; “no binding” with GST-Ahc1 (S. cerevisiae) [12]; “binds” in test [13]; “binds” with GST-Kog1 (S. cerevisiae) [14]; “binds” in the test with GST-Nop6 (S. cerevisiae) [15]. For the same molecule, the binding entry with GST-Rvb2 (S. cerevisiae) [16] and in the test with GST-Rvb1 (S. cerevisiae) [17] was “binds” each time.

B4: HA3-Sds22-RM45 (protein, UniProt P36047 1-338)
chain: B3 chain with E79G, L159Q, L295I
On to B4, for which the binding result in the test with GST-Snf4 (S. cerevisiae) [10] is reported as “binds”; in the test with GST-Bub3 (S. cerevisiae) [11], “binds”; with GST-Ahc1 (S. cerevisiae) [12], “no binding”; in test [13], “binds”; with GST-Kog1 (S. cerevisiae) [14], “binds”; in the test with GST-Nop6 (S. cerevisiae) [15], “binds”. Also, the binding entry with GST-Rvb2 (S. cerevisiae) [16] and with GST-Rvb1 (S. cerevisiae) [17] was “binds” each time.

B5: Gal4AD-Sds22-RM45 (protein, UniProt P36047 1-338)
chain: B3 chain with E79G, L159Q, L295I
Turning to B5, in test [9], the binding entry is “no binding”.

B6: Gal4AD-Sds22 (protein, UniProt P36047 1-338)
chain: B3 chain
Regarding B6, the binding result in [9] is reported as “binds”.
